Assay results published in PubChem BioAssay AID1963576 (National Center for Advancing Translational Sciences (NCATS), 2024).
Among all 46,000 compounds or so, about 60 (0.1%) were called active. Not shown: some 3% with an inconclusive outcome. The call rests on the fitted dose curve; in most records, active means well fitted inhibition curve with a large enough effect; inconclusive means small, poorly fitted or top-dose-only effect; inactive means no such curve, though single readings can be large or run the other way. The list shows a part of the results.

Assay: Primary qHTS assay for Inhibitors of ovarian cancer metastasis using an organotypic tumor microenvironment (TME) model. Further: nearly all actives have a fitted effect of over 65% in size.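 On activity change, negative = inhibition: plate controls were DMSO wells for no effect and tomatine positive control wells for full effect.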
Settings: SKOV3ip1-GFP adhesion/invasion on 3D omental model, fluorescence; series mostly up to 45.8 µM; activity change, negative = inhibition: at the top concentration
How it was run: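 Adhesion/invasion was scored as fixed GFP-labeled SKOV3ip1 cell counts (488/509 nm), normalized to DMSO and tomatine controls. Cancer cells in serum-free medium, with four compound doses (0.36-46 umol/L), sat 2 hr at RT then 16 hr at 37 C on a 48 hr fibroblast/mesothelial/ECM culture.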

Activity change, negative = inhibition, inactive:
CCCCNC(=O)CSc1nc2cc3c(cc2c(=O)n1Cc1ccc(C(=O)NCCc2ccc(OC)c(OC)c2)cc1)OCO3 -7.26%
COc1ccc(NC(=O)N2CCCn3nc(C)cc32)cc1OC 14.8%
Cn1c(=O)c(=O)n(C)c2cc(NS(=O)(=O)c3ccc(Br)cc3)c(Cl)cc21 4.8%
CCc1ccc(-n2nc(CO)c(C(=O)NCc3ccccc3Cl)n2)cc1 -6.38%
COc1ccc(-c2cc3ccc(O)c(CN4CCCC(C)C4)c3oc2=O)cc1OC (stereo not drawn) -18.5%
O=C(NCc1cccc(Cl)c1)c1ccc(NC(=O)N2CCSc3ccccc32)cc1 3.46%
O=C(CCC(=O)N1Cc2ccccc2Oc2ncccc21)NCc1cccc(Cl)c1 11.1%
CC(Oc1ccccc1)C(=O)Nc1ccc(C(=O)OCc2cc(=O)n3nc(C4CC4)sc3n2)cc1 (stereo not drawn) -9.69%
CCn1c(C(=O)NCc2ccccc2Cl)cc2sc(Cl)cc21 -8.83%
Cc1ccc(CN2C(=O)SC(Nc3ccc(Cl)cc3)C2=O)cc1 (stereo not drawn) 8.15%
Cc1nn(C)c(C)c1S(=O)(=O)N(CC(=O)Nc1ccc(F)cc1F)c1ccc(C(C)C)cc1 -0.519%
COc1ccc(NC(=O)Cn2c(=O)n(-c3ccc(C)cc3)c(=O)c3c2c2cc(C)ccc2n3C)cc1 2.14%
Cc1ccc(Cc2c(C)nc3nc(SCC(=O)NCCC(C)C)nn3c2C)cc1 -22.1%
COc1cccc(CNC(=O)C(=O)NCC(c2ccco2)S(=O)(=O)c2ccccc2)c1 (stereo not drawn) 21.6%
O=C(CN1C(=O)CCn2nc(-c3ccccc3)cc21)NCc1ccccc1 2.21%
O=C(Nc1onc2c1CCCC2)c1ccccc1 -6.37%
CCCOc1cccc(C2c3c(oc4ccc(F)cc4c3=O)C(=O)N2CCc2ccc(OC)cc2)c1 (stereo not drawn) 3.59%
Cc1ccccc1-c1nc(CS(=O)(=O)CC(=O)NCCCc2ccccc2)c(C)o1 5.3%
COc1ccc(-n2nc(C(=O)NCCc3ccc(OC)c(OC)c3)c3c4ccccc4n(C)c3c2=O)cc1 0.313%
COc1cccc(C2C(C(=O)Nc3ccccc3OC)=C(C)Nc3nc(-c4ccco4)nn32)c1 (stereo not drawn) -28.6%
COc1ccccc1CNC(=O)c1cnc2sc(N3CCCCC3)nn2c1=O -3.35%
COc1ccc(C(=O)NCC(c2ccc(Cl)cc2)N2CCCCC2)cc1 (stereo not drawn) 9.6%
COc1ccccc1CNC(=O)Cn1nc(C)n2cccc2c1=O -7.89%
CCC(C(=O)Nc1cc(C(F)(F)F)ccc1Cl)n1nc(C)c2sc3ccccc3c2c1=O (stereo not drawn) 5.41%
COc1cccc(CNC(=O)c2sc3ncccc3c2-n2c(C)ccc2C)c1OC 5.19%
O=c1cc(COc2ccccc2Cl)nc2scc(-c3ccccc3)n12 3.69%
COc1ccccc1NC(=O)Cn1nnc(C(=O)NCc2cccs2)c1N -5.8%
CCc1cccc(NC(=O)CSc2ncc3c(n2)-c2cc(Cl)ccc2N(C)S3(=O)=O)c1 -1.45%
CCOC(=O)c1ccc(N2C(=O)c3[nH]nc(-c4ccc(OC)cc4)c3C2c2cccc(O)c2)cc1 (stereo not drawn) 2.6%
COc1ccc(NC(=O)CCS(=O)(=O)c2nc(-c3ccc4c(c3)OCO4)cc(C(F)(F)F)n2)cc1OC 9.16%
Cc1ccc(Cl)cc1N1CCN(C(=O)Cn2nc(C)c3sc4ccccc4c3c2=O)CC1 0.544%
Cc1ccc(C2NC(=O)c3n[nH]c(-c4cccs4)c32)cc1 (stereo not drawn) -21.5%
COCCNC(=O)c1c(NC(=O)c2cc(=O)c3cc(C)cc(C)c3o2)sc2c1CCCC2 7.18%
COc1cc(C(=O)NCc2ccc3c(c2)CCN3C(=O)c2ccc(Cl)cc2)cc(OC)c1OC -2.79%
COC(=O)c1c(NC(=O)Cc2coc3cc(C)cc(C)c23)sc2c1CCC2 -7.9%
COc1ccc(C2CC(=O)c3cc(-c4nc(-c5cccc([N+](=O)[O-])c5)cs4)c(=O)n(-c4cccc(C)c4)c3C2)cc1 (stereo not drawn) 2.92%
Cc1ccc(NC(=O)CSc2nc3ccc(NC(=O)c4ccco4)cc3s2)cc1 -18.3%
COc1cccc(Cn2c(C)c(CNCc3cccc(C)c3)c(C(=O)O)c2C)c1 -2.41%
CC(=O)c1ccc(NC(=O)c2ccc(-c3nc(CSc4ccc(C)cc4)c(C)o3)cc2)cc1 -8.99%
CCc1ccc(NC(=O)c2cnc3c(-c4ccccc4)c(C)nn3c2C)cc1 -11.8%
O=C(Nc1ccccc1Cl)N1CCC2(CC1)Oc1ccccc1C(=O)N2Cc1ccc(F)cc1 4.97%
CC1(O)CC(c2nc(-c3ccc4ccc(-c5ccccc5)nc4c3)c3c(N)nccn23)C1 (stereo not drawn) 3.26%
Cc1cccc(-c2nc3c4ccccc4nc(N4CCN(c5cccc(Cl)c5)CC4)n3n2)c1 -6.53%
O=C(CSc1nc2ccccc2nc1Cc1ccccc1)N1CCc2ccccc21 47.8%
Cc1cccc(NC(=O)CSc2nc(-c3cccs3)nc3cc(=O)[nH]n23)c1 -1.82%
CCCCN(C)C(=O)CSc1c2c(nc3ccc(Cl)cc13)CCCC2 -4.51%
Cc1cc(C)c2oc(-c3cccc(NC(=O)c4cccc(F)c4)c3C)nc2c1 -8.01%
Cc1cc(C(=O)N2CCN(c3ccccc3F)CC2)c2c(C)nn(-c3ccccc3)c2n1 11.8%
Cc1cc(C)n2nc(CNS(=O)(=O)c3cccc(Cl)c3)nc2n1 5.82%
Cc1cccc(N2CCN(CCCNC(=O)Cn3ncc4c([nH]c5ccccc54)c3=O)CC2C)c1 (stereo not drawn) 1.14%
Cc1ccc(Cl)cc1N1CCN(C(=O)C2CCN(S(=O)(=O)c3cn(C)cn3)CC2)CC1 4.65%
Cc1cccc(Cn2c(=O)n(-c3cc(C)cc(C)c3)c(=O)c3oc4ccccc4c32)c1 -9.04%
Cc1ccc(Cl)cc1NC(=O)CN1C=NS(=O)(=O)c2ccccc21 -3.22%
CCc1ccc(S(=O)(=O)Nc2ccc3c(c2)sc(=O)n3C)cc1 14.8%
CCc1nn(CC(=O)NCc2ccccc2)c(=O)c2cccn12 4.3%
O=C(NCCS(=O)(=O)N1CCN(c2cccc(Cl)c2)CC1)C(c1ccccc1)c1ccccc1 -4.65%
Cc1ccc(-c2nc3cccc(C)n3c2Nc2ccc3c(c2)OCCO3)cc1 -4.63%
O=C(Cn1c(=O)n(Cc2ccco2)c(=O)c2oc3ccccc3c21)Nc1ccccc1 -2.2%
COc1cc(NC(=O)C2CCN(c3cnccn3)CC2)cc(OC)c1 95.1%
CCN(CCCNC(=O)c1cc2c(=O)n(C)c3ccccc3c2s1)c1ccccc1 -7.59%
COc1ccccc1NC(=O)CN1C(=O)C(c2ccc(F)cc2)=NC12CCCCC2 0.0488%
COc1ccccc1N1CCN(C(=O)C2CCN(S(=O)(=O)c3cn(C)cn3)CC2)CC1 1.59%
COc1cccc(N2CCN(C(=O)c3cnn(-c4ccccc4Cl)c3C3CCN(C(=O)OC(C)(C)C)CC3)CC2)c1 14.1%
CCCCc1ccc(NS(=O)(=O)c2cc3c4c(c2)CC(=O)N4CCC3)cc1 -6.71%
COc1cc(Nc2ncc(F)c(Nc3ccc4c(n3)N(COP(=O)(O)O)C(=O)C(C)(C)O4)n2)cc(OC)c1OC 1.85%
CCc1ccc2oc(-c3cc(NC(=O)c4cc(OC)c(OC)c(OC)c4)ccc3O)nc2c1 -0.308%
CCOCCCNC(=O)c1ccc2c(=O)n(CCc3ccccc3)c(=O)[nH]c2c1 -2.15%
CC(=O)c1ccc(NC(=O)CSc2nc(=O)n(Cc3ccccn3)c3c2CCC3)cc1 -6.55%
CN(C)c1ccc(CNC(=O)CN2C(=O)C3CCCCN3c3ccc(C(=O)N4CCCC4)cc32)cc1 (stereo not drawn) 6.35%
O=C(CCc1ccccc1)NC1CC(=O)N(c2cccc(F)c2)C1 (stereo not drawn) 3.11%
CCC(=O)N1CCc2cc(S(=O)(=O)NC(CC(C)C)C(=O)Nc3cccc(C)c3C)ccc21 (stereo not drawn) -9.09%

outcome, inactive:
Cc1cc2[nH]c(=O)c(=O)[nH]c2cc1S(=O)(=O)N1CCN(c2ccccc2)CC1
COc1ccc(Cc2nc3ccccc3n2Cc2ccccc2C)cc1
CCC(Sc1nnc2c3ccccc3n(CC)c2n1)C(=O)Nc1ccc(NC(C)=O)cc1 (stereo not drawn)
O=C(Cn1cnc2onc(-c3ccc(F)cc3)c2c1=O)N1CCN(c2ccc(F)cc2)CC1
COc1ccc(-c2noc(CSc3nc4ccc(C)cc4[nH]3)n2)cc1
O=C(Cn1nc(Cc2cccnc2)c2ccccc2c1=O)Nc1ccc(F)c(Cl)c1
COc1ccccc1CNC(=O)CCn1c(=O)c2ccccc2n(CC(=O)Nc2cc(Cl)ccc2C)c1=O
O=C(Nc1cccc(C(=O)OCc2cc(=O)n3c4c(sc3n2)CCCC4)c1)c1cccc(F)c1
CCC(C)NC(=O)CCSc1nc(-c2ccc3c(c2)OCO3)cc(C(F)(F)F)n1 (stereo not drawn)
Cc1ccc(NC(=O)CSc2nc(=O)n(Cc3ccccn3)c3c2CCC3)cc1F
COc1ccc(-c2c3c(nc4sc(C(=O)Nc5cccc(OC)c5)c(N)c24)CC(C)(C)CC3=O)cc1
CCc1ccccc1NC(=O)Cn1c(=O)n(CCc2ccccc2)c(=O)c2sc3ccccc3c21
CCC(C)NC(=O)c1ccc(CNS(=O)(=O)c2ccc3c(c2)C(C)(C)C(=O)N3C)cc1 (stereo not drawn)
COc1ccc(CCNC(=O)c2ccc(Cn3c(=O)c4cccn4c4cccnc43)cc2)cc1OC
Cc1cc(C)c2c(n1)nn1c(C)c(CCC(=O)Nc3cccc(C)c3C)c(C)nc21
CCc1nn(CCCC(=O)NCc2ccccc2OC)c(=O)c2cc3occc3n12
CCOCCCn1c(=N)c(C(=O)NC2CCCCC2)cc2c(=O)n3ccccc3nc21
COc1ccc(N(C)C(=O)Cn2cnc3sc(C)c(S(=O)(=O)N4CCN(c5ncccn5)CC4)c3c2=O)cc1
CCc1ccccc1Nc1nn2c(=O)c3ccc(C(=O)NC(C)C)cc3nc2s1
COc1cccc(-c2cn3c(n2)sc2cc(C(=O)NC4CCCCC4)ccc23)c1
COc1cccc(NC(=O)C2CCC(CNS(=O)(=O)c3csc(C(N)=O)c3)CC2)c1 (stereo not drawn)
COc1ccccc1C(=O)n1nc(-c2ccccc2)nc1NCc1ccc(Cl)cc1
